# Test results published in ChEMBL document CHEMBL4888484, “Replenishing the malaria drug discovery pipeline: Screening and hit evaluation of the MMV Hit Generation Library 1 (HGL1) against asexual blood stage Plasmodium falciparum ,using a nano luciferase reporter read-out” (2022).
# In all, about 150,000 compounds went through this assay and about 540 (0.36%) showed an effect of 50% or more. This is one part of the list.
# System: Plasmodium falciparum
# Assay: Primary screen in NF54 nanoGlo assay, in single point, at 2uM, 72h; a lower Z score goes with more inhibition
# Type: functional, Erythrocyte
# Settings: timepoint 72 hour
SMILES,% Inhibition,Z score
CCOc1ccccc1N1C[C@@H](c2nc3ccccc3n2CCN2CCOCC2)CC1=O,-16%,1.51
Cc1cc(Cc2ccc(S(=O)(=O)N3CCN(c4ccccc4)CC3)cc2)c(=O)[nH]n1,4%,-0.37
CCc1ccc(-c2cc3c(=O)n(CC(=O)N4CCCC4)ncn3n2)cc1,-14%,1.2
Cc1ncn(CC(=O)N2CC(n3cc(-c4ccccc4)nn3)C2)c(=O)c1C,-19%,2.45
O=C(O)c1cn(-c2nccs2)c2c(F)c(Nc3ccccc3)c(F)cc2c1=O,33%,-3.7
Cc1ccccc1OCCOc1ccc(Oc2nc(N(C)C)nc(N3CCCC3)n2)nn1,-16%,1.91
O=C(c1cc2occc2c(Nc2ccc(F)cc2)n1)N1CCN(C(=O)c2ccco2)CC1,-19%,1.87
CC(=O)N1CCN(Cc2ccccc2NC(=O)Cc2ccc(C)nc2)CC1,-6%,1.11
Cc1nccn1C[C@H]1CCCN(C(=O)CCc2nc3ccccc3s2)C1,-6%,1.14
Cc1cn2nc(C(=O)N3CCN(C(=O)c4ccco4)CC3)cc2c(N2CCCC2)n1,5%,-0.7
CN(C)C1(CNCc2[nH]c3ccccc3c2Cl)CCCCC1,-1%,0.08
CCNC(=O)[C@@H]1CCCN1C(=O)c1cccc(NS(=O)(=O)c2ccc(C)cc2C)c1,18%,-2.14
CCNc1cc(CNc2ncc(F)cn2)ccn1,10%,-1.19
NC(=O)[C@H]1CCCN(CCNc2ncnc3c2Cc2ccccc2OC3)C1,-8%,1.62
Cc1cc(Br)cc(C(=O)N(C)C[C@H](O)C(F)(F)F)c1,-3%,0.31
c1cnc(NCc2nc3c([nH]2)CCCC3)cn1,-8%,1.52
C[C@H](O)c1cnc(CNC2(c3cccc(Cl)c3)CCCC2)s1,13%,-1.7
O=C1C[C@H](N2CCC3(CC2)OCCO3)C(=O)N1c1ccc(Cl)cc1,-6%,0.84
O=C1OC[C@@H]2CCNCc3ccc(F)cc3N12,-10%,1.56
COC(c1nc(-c2cc(Br)c3ccccc3c2)no1)C1CCOC1 (stereo not drawn),-6%,1.15
O=C(NCC1(c2ccccc2)CC1)N[C@H](c1nccs1)C1CC1,-6%,0.67
CCc1nnc2n1CCN(C(=O)c1cc3ccccc3o1)C2,9%,-1.52
Cc1ccccc1N1C[C@@H](c2nc(C(C)C)no2)CC1=O,-7%,0.84
Cc1nc(C(=O)N2CCC(c3nc4c(s3)CCC4)CC2)no1,-1%,0.25
O=C(CCN1CCN(Cc2ccccc2)C(=O)C1=O)NCc1ccc2c(c1)OCO2,-9%,1.21
Cc1cccnc1NC(=O)C1CCCN(CC(O)c2ccc(F)c(F)c2)C1 (stereo not drawn),-12%,1.25
CCc1ccc(CN2CCC([C@]3(Cc4cccc(OC)c4)NC(=O)N(C)C3=O)CC2)o1,-12%,1.61

SMILES,% Inhibition,Z score
Cc1ccc(NC(=O)Nc2ccc(-c3nc(-c4cc(C)ccc4C)co3)cc2)cc1,-9%,1.09
Cc1cc(S(=O)(=O)NCC2(N)CCCCC2)c(C)s1,-11%,1.12
O=C([C@@H]1COc2ccccc21)N1CCC(OCc2ccc(F)cc2)CC1,6%,-0.8
COc1ccc(OCc2nc(C(=O)N3CC[C@H]3c3cccs3)co2)cc1,-16%,2.08
Cc1ccsc1CN(C)Cc1ccccc1-c1nnn[nH]1,-13%,2.6
Nc1ncnc2[nH]nc(-c3ccc(Oc4ccccc4)cc3)c12,14%,-1.33
CC1CN(C(=O)c2cc(F)cc3c(=O)c4cc(F)ccc4[nH]c23)CC(C)O1 (stereo not drawn),-10%,1.65
CCC1=NO[C@@H](CNC(=O)c2cccc(-c3nccn3C(C)C)c2)C1,-12%,1.15
Cc1ccc2nc3c(cc2c1)CCN3C(=O)C(C)C,-10%,1.11
CC(C)COC1CCN(C(=O)C(=O)Nc2nccs2)CC1,-2%,0.21
CN(C)C(=O)C1C[C@@H]2OCC[C@@H]2N1C(=O)COC1CCCC1 (stereo partly drawn),7%,-1.03
N#Cc1ccc(NCc2ccc(Cn3cccn3)cc2)nc1,-10%,0.98
c1cc2c(cc1-c1nnc(C3CC3)o1)OCO2,-20%,2.88
Cc1cc(C)nc(N(C)Cc2nncn2C(C)C)n1,0%,0.03
O=S(=O)(CC1CCOC1)N1CCCC1Cn1ccnc1 (stereo not drawn),-2%,0.21
COCCS(=O)(=O)NC(=O)C1CC1C1CCCCC1 (stereo not drawn),1%,-0.1
CCOc1ccc(-[n+]2cc(-c3ccccc3)n3c2CCC3)cc1,68%,-6.48
CC(c1ccc(Cl)cc1Cl)N(C)C(=O)C1CCNC1 (stereo not drawn),-10%,1.93
Cc1nnc2ccc(N3CCNC(=O)[C@@H]3C)nn12,-4%,0.4
Cc1cc(S(=O)(=O)Nc2cccc(CN3CCOCC3)n2)c(C)s1,-8%,0.82
COc1cc(NC(=O)N[C@H]2CCO[C@@H]2c2nccn2C)cc(Cl)c1OC,-4%,0.59
Cc1cccnc1N1CCC(c2nccn2CCCN(C)C)CC1,-6%,1.09
O=S(=O)(NC(c1ccccn1)[C@H]1C[C@H](O)C1)N1CCCC1 (stereo partly drawn),-6%,1.14
COc1cc(C(=O)n2ccc(-c3ccc4c(c3)OCO4)n2)cc(OC)c1OC,0%,0.04
O=C(NC1CC1)[C@@H]1C[C@@H]2OCC[C@@H]2N1C(=O)c1ccc(-c2ccccc2F)o1,-1%,0.18
O=C(Nc1cc(Cl)cc(Cl)c1)[C@H](CC1CCCCC1)N1CCS(=O)(=O)CC1,-3%,0.41
Cc1nc(C(=O)NCC2CCCC2O)no1 (stereo not drawn),-7%,0.95
